Results: PubChem BioAssay AID1159614 (National Center for Advancing Translational Sciences (NCATS), 2016)
Out of some 45,000 compounds screened, about 65 (0.1%) were called active. Calls follow the shape of the dose curve; as a rule, active = well fitted activation curve with a large enough effect; inconclusive = small, poorly fitted or top-dose-only effect; inactive = no such curve, though single readings can be large or run the other way. This is one part of the list.

biological target: Galactocerebrosidase (Homo sapiens) (UniProt P54803); assay: A Novel Cell-Based Assay to Identify Small Molecules for B -Galactocerebrosidase; settings: 145M-Twi-hGALC-G270D cells, HMU-beta-Gal fluorescence, 48 h; series mostly up to 57.5 µM; activation: at the top concentration; also: 0% is about no effect; nearly all actives have a fitted effect of over 65% in size
How it was run: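 qHTS, 1536-well; 145M-Twi-hGALC-G270D cells (WT line also made) in DMEM/F12 + 10% FBS; compound incubation on live cells; HMU-β-gal 0.1 mM final, pH 5.2, NaTC; carbonate stop; fluorescence increase = enhanced residual activity.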

Sequence of UniProt P54803 (P54803 whole entry, looked up): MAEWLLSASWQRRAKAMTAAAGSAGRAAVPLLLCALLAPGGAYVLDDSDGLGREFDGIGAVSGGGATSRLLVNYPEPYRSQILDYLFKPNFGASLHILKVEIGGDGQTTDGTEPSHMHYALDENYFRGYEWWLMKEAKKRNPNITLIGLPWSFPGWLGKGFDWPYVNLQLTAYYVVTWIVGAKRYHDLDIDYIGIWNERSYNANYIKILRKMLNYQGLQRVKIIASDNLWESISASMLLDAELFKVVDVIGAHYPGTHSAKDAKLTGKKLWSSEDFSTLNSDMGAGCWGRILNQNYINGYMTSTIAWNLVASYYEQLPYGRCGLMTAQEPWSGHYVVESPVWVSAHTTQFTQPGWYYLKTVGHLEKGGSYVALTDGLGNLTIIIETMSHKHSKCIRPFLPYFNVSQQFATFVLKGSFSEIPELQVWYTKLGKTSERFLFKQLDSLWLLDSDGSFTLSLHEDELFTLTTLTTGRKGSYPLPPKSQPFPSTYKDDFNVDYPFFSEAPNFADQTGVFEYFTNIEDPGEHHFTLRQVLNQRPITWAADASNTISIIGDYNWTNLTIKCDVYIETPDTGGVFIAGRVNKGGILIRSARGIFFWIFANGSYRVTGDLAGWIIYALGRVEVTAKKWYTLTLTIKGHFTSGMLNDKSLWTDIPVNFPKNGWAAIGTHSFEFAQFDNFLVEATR

activation, inactive:
COc1ccc2c(c1)CCc1c(C(=O)Nc3c(C)nn(Cc4ccc(Cl)c(Cl)c4)c3C)noc1-2 -14.5%
Cc1ccc(S(=O)(=O)c2nc(-c3cccc(C)c3)oc2N2CCN(c3ccccc3)CC2)cc1 -1.97%
COc1cc(OC)c(NC(=O)NCc2ccc3c(c2)CCN3C(=O)c2ccccc2)cc1Cl -10.9%
S=c1nc[nH]c2nc[nH]c12 -11.8%
CCOC(=O)CC1c2cc(OCC)c(OCC)cc2CCN1C(=O)Nc1cccc(Cl)c1 (stereo not given) -12.2%
CCc1ccccc1NC(=O)CSc1nc(-c2ccccc2OC)nc2c1Cc1c(CO)cnc(C)c1O2 -11.9%
Cc1ccc2c(c1)cc1c(=O)n(CC(=O)NC3CCCCC3)nc(C)n12 -14.8%
COC(=O)C(CCSC)NC(=O)c1cc2c(n(-c3ccc(C)cc3)c1=O)CC(C)(C)CC2=O (stereo not given) 4.58%
CC(=O)c1cc(C(=O)Nc2cc(C)cc(C)c2)c2ccccn12 -3.88%
CCCCC(CC)CNC(=O)C1CCC(CNS(=O)(=O)c2cccc3nsnc23)CC1 (stereo not given) -16.4%
Cc1cc(C)cc(OCCCn2c(CCNC(=O)C3CCCCC3)nc3ccccc32)c1 -16.9%
CCC(=O)N1c2ccc(S(=O)(=O)N3CCC(C)CC3)cc2CC1C (stereo not given) 0.13%
COc1ccc(CCNC(=O)CCCn2c(=O)c3ccccc3n(Cc3c(C)cc(C)cc3C)c2=O)cc1OC 10.4%
CCC(=O)Nc1ccc(-c2nnc3c4ccccc4c(C)nn23)cc1 -19.9%
O=C(NCc1ccccc1)c1ccc2c(c1)CCN2S(=O)(=O)c1ccccc1 -22.3%
NC(=O)C1(N2CCCCC2)CCN(CCCC(=O)c2ccc(F)cc2)CC1 -15.3%
CNC1(C)C2CCC(C2)C1(C)C (stereo not given) -7.87%
CNC(=O)c1ccc(Nc2nnc(-c3ccc(C)c(S(=O)(=O)N(C)C)c3)c3ccccc23)cc1 -3.29%
CCOC(=O)c1[nH]c(C)c(CCC(=O)NCc2ccccc2Cl)c1C -9.72%
CCCc1ccc(S(=O)(=O)N2CCC(Oc3ccc(-n4cnnn4)cc3)CC2)cc1 -9.37%
Cc1ccc(NC(=O)CSc2nc(=O)n(CCCN(C)C)c3c2CCC3)cc1F -4.64%
CC1CCN(S(=O)(=O)c2ccc(C(=O)Nc3sc4c(c3C(N)=O)CC(C)(C)NC4(C)C)cc2)CC1 0.26%
COc1cc(NC(=O)CSc2nc(-c3ccc(C)cc3)nc3c2Cc2ccccc2O3)cc(OC)c1 -1.56%
N#Cc1ccc(CSc2nc3c(c(=O)[nH]2)CCC3)cc1 -17.7%
Cc1cccc(C)c1-n1ncc(C(=O)N2CCN(c3ccccn3)CC2)c1C1CCN(C(=O)OC(C)(C)C)CC1 -11%
O=C(CC1C(=O)OCCN1Cc1ccccc1)Nc1ccc(F)cc1 (stereo not given) -1.53%
Cc1ccc(C)c(NC(=O)Cn2cc(C(=O)c3ccc(Cl)cc3)c(=O)c3ccc(C)nc32)c1 -9.95%
CC(=O)c1ccc(NC(=O)CSc2cn(CC(=O)N3CCCCCC3)c3ccccc23)cc1 -28.4%
Cc1cccc(-c2nc3c4ccccc4nc(NCc4ccc(Cl)cc4)n3n2)c1 25.9%
CC(C)Cn1c(=O)c2sccc2n2c(CCCC(=O)NCc3ccccc3Cl)nnc12 -12.3%
COc1ccc(NC(=O)CSc2oc(-c3ccco3)nc2S(=O)(=O)c2ccc(Br)cc2)c(OC)c1 -25.6%
COc1ccc(-c2cc(C(=O)NCc3ccc(F)cc3)c3c(-c4ccc(F)cc4)[nH]nc3n2)cc1OC -15.3%
CCc1ccc2oc(-c3cc(NC(=O)C(C)C)cc(C)c3O)nc2c1 -20.9%
CCCOc1ccc(-c2nonc2NC(=O)c2oc3ccc(C)cc3c2C)cc1OCCC -9.9%
O=C(Cn1cc(SCc2ccc(C(F)(F)F)cc2)c2ccccc21)N1CCCC1 -9.26%
CCOC(=O)N1CCC(NC(=O)c2cnn(-c3cccc(Cl)c3C)c2C2CCN(C(=O)OC(C)(C)C)CC2)CC1 -21.5%
CC(=O)N1c2ccc(S(=O)(=O)N3CCCCCC3)cc2CC1C(=O)NCc1ccc(Cl)cc1 (stereo not given) -10.7%
COc1cccc(CNC(=O)C2CCN(S(=O)(=O)c3cn(C)cn3)CC2)c1 -16.8%
O=C(CC1C(=O)OCCN1Cc1ccccc1)Nc1cccc(C(F)(F)F)c1 (stereo not given) -7.91%
COc1ccc(OC)c(NC(=O)c2cc(CN3CCCC3)on2)c1 -16.8%
Oc1ccc(Cl)cc1C1=Nc2ccccc2N=C(c2cccc(Br)c2)C1 -14.7%
CN1CCN(c2nc3c(S(=O)(=O)c4ccc(Br)cc4)nnn3c3ccsc23)CC1 -6.54%
CCc1sc(Nc2cccc(Cl)c2C)nc1-c1cc2cccc(OC)c2oc1=O -8.11%
COc1cccc(CN2CCc3nc(N4CCN(c5ncccn5)CC4)ncc3C2)c1 -21.3%
Cc1c(Cl)cccc1NC(=O)CSc1ncccc1C(=O)Oc1ccccc1Cl -15.1%
Cc1ccc(NC(=O)C(=O)NCC(c2cccnc2)N2CCN(C)CC2)cc1F (stereo not given) -26.1%
COC(=O)C(CCSC)NC(=O)c1c(C)oc2ncn(CC(C)C)c(=O)c12 (stereo not given) -7.39%
CCOCCSc1c(C)cnc2c1c(=O)n(C)c(=O)n2C -22.1%
Cc1ccc(N2C(=O)c3[nH]nc(-c4ccc(Cl)cc4)c3C2c2ccc(F)cc2)cc1 (stereo not given) -11.1%
COc1cc2ccccc2cc1C(=O)Nc1ccc(Cl)c(-c2nc3ccccc3o2)c1 -3.31%
COc1ccc(CNC(=O)c2cccc(-n3cnc4cccnc43)c2C)cc1 -6.94%
CCOc1ccc(NC(=O)Cn2ccn(-c3ccc(F)c(F)c3)c(=O)c2=O)cc1 -18.6%
COc1cccc(C(=O)Nc2ccc(-c3cn4cccnc4n3)cc2)c1OC 12.1%
COc1cc(OC)cc(C(=O)NCC(c2cccs2)S(=O)(=O)c2ccc(F)c(C)c2)c1 (stereo not given) -11.7%
COc1cc(C(=O)N2CCN(CCc3ccccn3)CC2)cc(OC)c1OC -9.39%
COc1ccc(NC(=O)CSCc2cnn(-c3ccccc3)c2-n2cccc2)cc1 -4.41%
CCn1ccc2cc(S(=O)(=O)N3CCC(C(=O)NCCc4ccc(C)cc4)CC3)ccc21 -1.3%
CCC(C)NC(=O)c1ccc2nc(Cc3ccc(OC)cc3)oc2c1 (stereo not given) -16.6%
NS(=O)(=O)c1ccc(NC(=O)c2ccc3c(c2)CCN3S(=O)(=O)c2ccccc2)cc1 -18.6%
CC1=C(c2ccc(C)cc2)S(=O)(=O)N(Cc2ccc(C(=O)Nc3ccc(F)cc3C)cc2)C1=O 0.336%
COc1ccccc1NC(=O)CN1C(=O)C2(SCC(=O)N2c2ccc(C)c(C)c2)c2ccccc21 (stereo not given) -21.5%
Cc1ccc(N(CC(=O)Nc2cc(C)cc(C)c2)S(=O)(=O)c2cccc3nonc23)cc1 -0.871%
CSc1ncc(Cl)c(C(=O)N(Cc2ccc(N(C)C)cc2)Cc2ccco2)n1 -15.2%
Cc1c(Cl)cccc1NC(=O)C(C)n1nnc2sc3c(c2c1=O)CCCC3 (stereo not given) -18.2%
Cc1c(C)n(C)c2ccc(C(=O)N3CCN(c4ccccc4)CC3)cc12 -5.48%
CCc1ccc(CNC(=O)CN2C(=O)c3cccnc3Oc3ccc(C)cc32)cc1 -7.14%
Cc1ccc2c(=O)cc(C(=O)Nc3ccc(S(=O)(=O)N4CCCCCC4)cc3)oc2c1C -7.66%
CCCCOc1ccc(CNC(=O)CCCN2C(=O)CSc3c2c(C)nn3-c2ccccc2)cc1 -13%
CCOC(=O)c1ccccc1NC(=O)c1sc2nc3n(c(=O)c2c1C)CCCC3 -14.7%
Cc1cc(C)cc(NC(=O)Cn2c(=O)c3ccccc3n3nncc23)c1 -2.76%
CC(C)c1ccc(C2N=C(N)Nc3nc4ccccc4n32)cc1 (stereo not given) -5.36%
CC(CC(=O)Nc1ccc(Br)cc1F)S(=O)(=O)c1ccc2c(c1)NC(=O)CO2 (stereo not given) -2.15%
CCOC(=O)C1CCN(C(=O)C2CCN(C3=NS(=O)(=O)C(c4ccc(C)c(C)c4)=C3C)CC2)CC1 -16.2%
Cc1cccc(C2CC(=O)Oc3c2c(=O)n(C)c2ccccc32)c1 (stereo not given) -7.54%
CCc1ccc(Cc2cnc(NC(=O)c3ccc4c(c3)CC(c3ccccc3)OC4=O)s2)cc1 (stereo not given) -11%
Cc1ccc(CNC(=O)Cn2cc(C(=O)c3ccc(F)cc3)c(=O)c3ccc(C)nc32)cc1 -20.5%
CCC(C)NC(=O)C(=O)Nc1c2c(nn1-c1ccccc1)CS(=O)(=O)C2 (stereo not given) -7.05%
COc1ccc(CNC(=O)c2cc3c(s2)-c2ccccc2OC3)cc1 21.3%
O=C(Cn1c(=O)n(-c2ccc(F)c(Cl)c2)c(=O)c2sc3ccccc3c21)NC1CCCC1 -10.3%
Cc1ccc(-n2c(=O)c3oc4ccccc4c3n(Cc3ccccc3F)c2=O)cc1C -17.9%
CC(C)CCNC(=O)C1CCC(Cn2c(=O)c3sccc3n(CC(=O)NC(C)C)c2=O)CC1 (stereo not given) 7.69%
O=C(CN1C(=O)CCSc2ccccc21)Nc1ccccc1F -3.37%
CCOc1ccc(CCNC(=O)C2COc3ccccc3C2)cc1OCC (stereo not given) -7.96%
CCOC(=O)c1c(NC(C)=O)c2c3c(sc2n1Cc1nc(-c2ccccc2C)oc1C)CCCC3 4.43%
O=C(Nc1nc2ccc(F)cc2s1)c1nc(S(=O)(=O)Cc2ccccc2)ncc1Cl -13.8%
COc1ccc(NC(=O)CSc2nc3c(oc4ccccc43)c(=O)n2-c2ccc(C)c(C)c2)cc1 -5.84%
CC1CN(C(=O)CCC(=O)NCc2ccc(F)cc2)c2cc(Cl)ccc2O1 (stereo not given) -7.41%
O=C(c1ccc2c(c1)N(Cc1ccc(Cl)cc1)C(=O)c1ccccc1S2(=O)=O)N1CCCCC1 -2.96%
CCCNC(=O)C1CCN(S(=O)(=O)c2ccc3c(c2)CCCN3C(C)=O)CC1 -25.5%
COc1cccc(C(=O)Nc2ccccc2OCc2cc(=O)n3cc(C)ccc3n2)c1 -9.32%
CCc1ccc(NC(=O)CSc2nc3n[nH]c(C)c3c(=N)n2-c2ccccc2C)cc1 -8.75%
Cc1cc2nc(-c3cc(NC(=O)c4cc5ccccc5o4)ccc3Cl)oc2cc1C -10.4%
Cc1oc(-c2ccc(Cl)cc2)nc1CS(=O)CC(=O)NCc1ccc(Cl)cc1 (stereo not given) -19.3%
CC(C)N(Cc1ccccc1)C(=O)CCS(=O)(=O)c1cc2c(cc1Cl)NC(=O)CO2 2.63%
Cc1ccc2nc(-c3ccc(O)cc3)c(Nc3ccc4c(c3)OCO4)n2c1 -12.4%
